{
  "source": "the antibiotic and cytotoxicity screens of Wong et al. (2023)",
  "note": "The other results are listed elsewhere or left out.",
  "data": [
    {"system": "HepG2", "test": "cytotoxicity call (relative viability < 0.9)", "conditions": "10 µM", "values": [
      {"smiles": "C[C@@]12CCC[C@](C)(C(=O)O[C@@H]3O[C@H](CO)[C@@H](O)[C@H](O)[C@H]3O)[C@@H]1CC[C@]13C[C@H](CC[C@@H]12)[C@](O)(CO)C3", "cytotoxicity call": "inactive"},
      {"smiles": "COCC#Cc1ccc2c(c1)O[C@@H](CN(C)C(=O)Nc1ccccc1F)[C@H](C)CN([C@H](C)CO)S2(=O)=O", "cytotoxicity call": "inactive"},
      {"smiles": "C[C@@H]1CCCCO[C@H](CN(C)C(=O)c2ccncc2)[C@H](C)CN([C@@H](C)CO)C(=O)c2cc(NC(=O)NC3CCCCC3)ccc2O1", "cytotoxicity call": "inactive"},
      {"smiles": "C[C@@H]1CN([C@H](C)CO)C(=O)Cc2cc(NS(=O)(=O)c3cccs3)ccc2O[C@@H]1CN(C)S(=O)(=O)c1cccs1", "cytotoxicity call": "inactive"},
      {"smiles": "CO[C@H]1CN(C)C(=O)c2cc(NC(=O)Nc3cccc(F)c3)ccc2OC[C@H](C)N(C(=O)Nc2c(C)noc2C)C[C@@H]1C", "cytotoxicity call": "inactive"},
      {"smiles": "C[C@@H]1CCCCO[C@H](CN(C)C(=O)Nc2ccc(C(F)(F)F)cc2)[C@@H](C)CN([C@H](C)CO)C(=O)c2cc(N(C)C)ccc2O1", "cytotoxicity call": "inactive"},
      {"smiles": "O=C(C1=C[C@@H](c2ccc(C(F)(F)F)cc2)C[C@@H](OCc2ccc(CO)cc2)O1)N1CCN(Cc2ccc3c(c2)OCO3)CC1", "cytotoxicity call": "inactive"},
      {"smiles": "C[C@H]1CN([C@@H](C)CO)C(=O)Cc2cc(NS(=O)(=O)c3cn(C)cn3)ccc2O[C@H]1CN(C)S(=O)(=O)c1ccc(Cl)cc1", "cytotoxicity call": "inactive"},
      {"smiles": "COc1cc(C)c2c(=O)c(-c3ccccc3)coc2c1", "cytotoxicity call": "inactive"},
      {"smiles": "C[C@H](CO)N1C[C@H](C)[C@@H](CN(C)C(=O)c2ccncc2)Oc2cc(C#CC3(O)CCCC3)ccc2S1(=O)=O", "cytotoxicity call": "inactive"},
      {"smiles": "C[C@@H]1CN([C@H](C)CO)C(=O)c2c(c3ccccc3n2C)-c2ccccc2CO[C@@H]1CN(C)Cc1cccc(O)c1", "cytotoxicity call": "inactive"},
      {"smiles": "CC(C)NC(=O)Nc1ccc2c(c1)C(=O)N(C)[C@H]1CC[C@@H](CC(=O)NCc3ccc(F)cc3)O[C@H]1CO2", "cytotoxicity call": "inactive"},
      {"smiles": "COc1ccc(S(=O)(=O)N(C)C[C@@H]2OCCCC[C@H](C)Oc3ccc(NC(=O)Nc4cccc5ccccc45)cc3C(=O)N([C@H](C)CO)C[C@H]2C)cc1", "cytotoxicity call": "inactive"},
      {"smiles": "O=C(O)CCNC(=O)c1ccccc1", "cytotoxicity call": "inactive"},
      {"smiles": "C[C@H]1CN([C@@H](C)CO)C(=O)c2cc(NC(=O)Cc3cn(C)c4ccccc34)ccc2O[C@H]1CN(C)Cc1ccc(C(F)(F)F)cc1", "cytotoxicity call": "inactive"},
      {"smiles": "C[C@@H]1CN([C@@H](C)CO)C(=O)c2cc(NS(=O)(=O)c3ccc(F)cc3)ccc2O[C@@H]1CN(C)Cc1ccc(Oc2ccccc2)cc1", "cytotoxicity call": "active"},
      {"smiles": "C[C@H](CO)N1C[C@H](C)[C@H](CN(C)S(=O)(=O)c2ccc(F)cc2)Oc2c(NC(=O)C3CCOCC3)cccc2C1=O", "cytotoxicity call": "inactive"},
      {"smiles": "Cc1cn([C@H]2C[C@H](N=[N+]=[N-])[C@@H](CO)O2)c(=O)[nH]c1=O", "cytotoxicity call": "inactive"},
      {"smiles": "Nc1cnc(Cl)cn1", "cytotoxicity call": "inactive"},
      {"smiles": "Oc1ccnc(S)n1", "cytotoxicity call": "inactive"},
      {"smiles": "Cc1noc(C)c1NC(=O)N(C)C[C@@H]1Oc2ncc(C#CCC(C)C)cc2C(=O)N([C@H](C)CO)C[C@@H]1C", "cytotoxicity call": "inactive"},
      {"smiles": "C[C@@H]1CN([C@@H](C)CO)C(=O)c2cccc(NC(=O)c3ccc(-c4nccs4)cc3)c2O[C@@H]1CN(C)S(=O)(=O)c1cn(C)cn1", "cytotoxicity call": "inactive"},
      {"smiles": "C[C@H]1CN([C@@H](C)CO)C(=O)c2c(c3ccccc3n2C)-c2ccccc2CO[C@H]1CN(C)Cc1ccc(O)cc1", "cytotoxicity call": "inactive"},
      {"smiles": "COc1ccc(NC(=O)N(C)C[C@H]2Oc3ccc(NC(=O)Nc4ccc(C(F)(F)F)cc4)cc3CC(=O)N([C@H](C)CO)C[C@@H]2C)cc1", "cytotoxicity call": "inactive"},
      {"smiles": "Cc1ccc(S(=O)(=O)N(C)C[C@H]2OCCCC[C@H](C)Oc3ccc(NC(=O)Nc4c(C)noc4C)cc3C(=O)N([C@@H](C)CO)C[C@H]2C)cc1", "cytotoxicity call": "inactive"},
      {"smiles": "C[C@H]1CCN=C(N)S1", "cytotoxicity call": "inactive"},
      {"smiles": "C[C@@H](NC(=O)C[C@H]1C=C[C@H](NC(=O)CN2CCOCC2)[C@@H](CO)O1)c1ccccc1", "cytotoxicity call": "inactive"},
      {"smiles": "C=CCOC(=O)[C@@H]1[C@H]2C(=O)O[C@H](c3ccccc3)[C@H](c3ccccc3)N2[C@H](c2ccc(OCCOC(=O)[C@@H]3C[C@@H]4C(=O)N5CCC[C@H]5C(=O)N4[C@@H]3c3ccc(O)cc3)cc2)[C@@]12C(=O)Nc1ccc(I)cc12", "cytotoxicity call": "inactive"},
      {"smiles": "Cc1ccccc1S(=O)(=O)N1[C@@H]2c3cccc(=O)n3C[C@H]1[C@H](CO)[C@H]2C(=O)N1CCOCC1", "cytotoxicity call": "inactive"},
      {"smiles": "CCOc1ccc(Nc2nc3c(=O)nc[nH]c3n2[C@H]2O[C@@H](CO)[C@@H](O)[C@@H]2O)cc1", "cytotoxicity call": "inactive"}
    ]}
  ]
}
